In the supplement of paper PMC12217912:
The list shows a part of the results. The full chains were built here from the parent and the listed change. Inactive controls read about 0.05.

B1: TEV protease; numbered along this chain (parent)
chain: MGESLFKGPRDYNPISSSICHLTNESDGHTTSLYGIGFGPFIITNKHLFRRNNGTLVVQSLHGVFKVKDTTTLQQHLVDGRDMIIIRMPKDFPPFPQKLKFREPQREERICLVTTNFQTKSMSSMVSDTSCTFPSGDGIFWKHWIQTKDGQCGSPLVSTRDGFIVGIHSASNFTNTNNYFTSVPKNFMELLTNQEAQQWVSGWRLNADSVLWGGHKVFMVKPEEPFQPVKEATQL

Variants of: B1
Experiment: raw area under fraction-flipped curve 0-4 h after induction (AUC4h, not background-subtracted), DNA-recorder readout of cleavage of the substrate (dimensionless); higher = more cleavage of the substrate by the protease variant
Settings: temperature: 34 °C; time window: 0-4 h after rhamnose induction
Description: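 In vivo DNA recorder in E. coli TOP10(DE3) ΔrhaA at 34 °C. Each TEVp single-site mutant (parent TEVp 0) is paired with a single-site variant of the 7-mer TEVs (canonical ENLYFQ|S). The substrate sits between flexible linkers in a Bxb1-sfGFP-TEVs-SsrA fusion, so cleavage stabilises Bxb1 and speeds flipping of a recombination array, read by NGS. The value is the raw area under the fraction-flipped curve over 0-4 h after rhamnose induction (AUC4h), with ≥20 reads per time point. It is not background-subtracted; inactive controls average about 0.047.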
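Note: Bxb1 expression induced with 0.2% (w/v) L-rhamnose at OD600 near 0.5, cultures sampled hourly, flipped fraction per protease–substrate barcode pair counted by paired-end Illumina sequencing.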

Variant | area with substrate ENDYFQS | area with substrate ENEYFQS | area with substrate ENMYFQS | area with substrate ENNYFQS | area with substrate ENPYFQS | area with substrate ENSYFQS | area with substrate ENVYFQS | area with substrate ENWYFQS | area with substrate ENKYFQS | area with substrate ENQYFQS
MTESLFKGPRDYNPISSSICHLTNESDGHTTSLYGIGFGPFIITNKHLFRRNNGTLVVQSLHGVFKVKDTTTLQQHLVDGRDMIIIRMPKDFPPFPQKLKFREPQREERICLVTTNFQTKSMSSMVSDTSCTFPSGDGIFWKHWIQTKDGQCGSPLVSTRDGFIVGIHSASNFTNTNNYFTSVPKNFMELLTNQEAQQWVSGWRLNADSVLWGGHKVFMVKPEEPFQPVKEATQL [G2T] | 0.0428 | 0.0527 | 0.121 |  |  |  |  |  |  | 
MGESLFKGPRDYNPISSSICHLTNESDGHTTSLYGIGFGPFIITNKHLFRRNNGTLVVQSLHGVFKVKDTTTLQQHLVDGRDMIIIRMPKDFPPFPQKLKFREPQREERICLVTTNFQTKSMSSMVSDTSCTFPSGDGIFWKHWIQTKDGQCGSPLVSTRDGFIVGIHSASNFTNTNNYFESVPKNFMELLTNQEAQQWVSGWRLNADSVLWGGHKVFMVKPEEPFQPVKEATQL [T181E] | 0.0586 |  |  | 0.0636 | 0.0518 | 0.069 | 0.0623 | 0.0613 |  | 
MGESLFKGPRDYNPISSSICHLTNESDGHTTSLYGIGFGPFIITNKHLFRRNNGTLVVQSLHGVFKVKDTTTLQQHLVDGRDMIIIRMPMDFPPFPQKLKFREPQREERICLVTTNFQTKSMSSMVSDTSCTFPSGDGIFWKHWIQTKDGQCGSPLVSTRDGFIVGIHSASNFTNTNNYFTSVPKNFMELLTNQEAQQWVSGWRLNADSVLWGGHKVFMVKPEEPFQPVKEATQL [K90M] | 0.0586 | 0.0564 |  |  |  |  |  |  | 0.0508 | 0.033
MGESLFKGPRDYNPISSSICHLTNESDGHTTSLYGIGFGPFIITNKHLFRRNNGTLVVQSLHGVFKVKDTTTLQQHLVDGRDMIIIRMPKDFPPFPQKLKFREPQREERICLVTTNFQWKSMSSMVSDTSCTFPSGDGIFWKHWIQTKDGQCGSPLVSTRDGFIVGIHSASNFTNTNNYFTSVPKNFMELLTNQEAQQWVSGWRLNADSVLWGGHKVFMVKPEEPFQPVKEATQL [T119W] | 0.0583 | 0.0636 |  |  |  |  | 0.0749 |  |  | 
MGESLFKGPRDYNPISSSICHLTNESDGGTTSLYGIGFGPFIITNKHLFRRNNGTLVVQSLHGVFKVKDTTTLQQHLVDGRDMIIIRMPKDFPPFPQKLKFREPQREERICLVTTNFQTKSMSSMVSDTSCTFPSGDGIFWKHWIQTKDGQCGSPLVSTRDGFIVGIHSASNFTNTNNYFTSVPKNFMELLTNQEAQQWVSGWRLNADSVLWGGHKVFMVKPEEPFQPVKEATQL [H29G] | 0.0846 |  |  |  |  | 0.0745 |  |  |  | 
MGESLFKGPRDYNPISSSICHLTNESDGHTTSLYGIGFGPFIITNKHLFRRNNGTLVVQSLHGVFKVKDTTTLQQHLVDGRDMIIIDMPKDFPPFPQKLKFREPQREERICLVTTNFQTKSMSSMVSDTSCTFPSGDGIFWKHWIQTKDGQCGSPLVSTRDGFIVGIHSASNFTNTNNYFTSVPKNFMELLTNQEAQQWVSGWRLNADSVLWGGHKVFMVKPEEPFQPVKEATQL [R87D] | 0.0465 | 0.0459 | 0.0702 | 0.0559 | 0.049 | 0.048 |  |  | 0.0487 | 
MGESLFKGPRDYNPISSSICHLTNESDGHTTSLYGIGFGPFIITNKHLFRRNNGTLVVQSLHGVFKVKDTTTLQQHLVDGRDMIIIRMPKDFPPFPQKLKFREPQREERICLVTTNFQTKSMSSMVSDTSCTFPSGDGIFWKHWIQTKDGQCGSPLVSTRDVFIVGIHSASNFTNTNNYFTSVPKNFMELLTNQEAQQWVSGWRLNADSVLWGGHKVFMVKPEEPFQPVKEATQL [G162V] | 0.0498 |  |  |  |  | 0.0567 | 0.0736 |  |  | 
MGESLFKGPRDYNPISSSICHLTNESDGHTTSLYIIGFGPFIITNKHLFRRNNGTLVVQSLHGVFKVKDTTTLQQHLVDGRDMIIIRMPKDFPPFPQKLKFREPQREERICLVTTNFQTKSMSSMVSDTSCTFPSGDGIFWKHWIQTKDGQCGSPLVSTRDGFIVGIHSASNFTNTNNYFTSVPKNFMELLTNQEAQQWVSGWRLNADSVLWGGHKVFMVKPEEPFQPVKEATQL [G35I] | 0.0624 |  |  |  |  |  |  |  |  | 0.0492
MGESLFKGPRDYNPISSSICHLTNESDGHTTSLYGIGFGPFIITNKHLFRRNNGTLVVQSLHGVFKVKDTTTLQQHLVDGRDMIIIRMPKDFPPFPQKLKFREPQREERICLVTTNFQTKSMSSMVSDTSCTFPSGDGIFWKHWIQTKDAQCGSPLVSTRDGFIVGIHSASNFTNTNNYFTSVPKNFMELLTNQEAQQWVSGWRLNADSVLWGGHKVFMVKPEEPFQPVKEATQL [G150A] | 0.0614 |  | 0.0579 | 0.0598 |  | 0.0681 |  |  | 0.0763 | 
MGESLFKGPRDYNPISSSICHLTNESDGHTTSLYGIGFGPFIITNKHLFRRNNGTLVVQSLHGVFKVKDTTTLQQHLVDGRDMIIIRMPKDFPPFPQKLKFREPQREERICLVTTNFQTKSMSSMVSDTSCTFPSGDGIFWKHWIQTKDGQCGSPLVSTRDGFIVGIHSASQFTNTNNYFTSVPKNFMELLTNQEAQQWVSGWRLNADSVLWGGHKVFMVKPEEPFQPVKEATQL [N172Q] | 0.0531 |  |  | 0.0578 |  |  |  |  | 0.0655 | 
MGESLFKGPRDYNPISSSICHLTNESDGHTTSLYGIGFGPFIITNKHLFRRNNGTLVVQSLHGVFKVKDTTTLQQHLVDGRDMIIIRMPKDFPPFPQKLKFREPQREERICLVTTNFQTKSMSSMVSDTSCTFPSGDGIFWKHWIQTKDGQCGSPLVSTRDGFIVGIHSASNFTNTNNYFTSVPKTFMELLTNQEAQQWVSGWRLNADSVLWGGHKVFMVKPEEPFQPVKEATQL [N186T] | 0.0523 | 0.0655 | 0.0847 |  | 0.0551 |  | 0.0744 | 0.0589 | 0.0542 | 
MGESLFKGPRDYNPISSSICHLTNESDGHTTSLYGIGFGPFIITNKHLFRRNNGTLVVQSLHGVFKVKDTTTLQMHLVDGRDMIIIRMPKDFPPFPQKLKFREPQREERICLVTTNFQTKSMSSMVSDTSCTFPSGDGIFWKHWIQTKDGQCGSPLVSTRDGFIVGIHSASNFTNTNNYFTSVPKNFMELLTNQEAQQWVSGWRLNADSVLWGGHKVFMVKPEEPFQPVKEATQL [Q75M] | 0.0622 | 0.0663 | 0.0688 | 0.0551 | 0.0552 | 0.061 | 0.101 |  |  | 0.0418

Same assay, conditions: temperature: 34 °C; time window: 0-4 h after rhamnose induction

Variant | area with substrate ENGYFQS | area with substrate ENHYFQS | area with substrate ENIYFQS | area with substrate ENRYFQS | area with substrate ENTYFQS | area with substrate ENYYFQS | area with substrate ENFYFQS
MGESLFKGPRDYNPISSSICHLTNESDGGTTSLYGIGFGPFIITNKHLFRRNNGTLVVQSLHGVFKVKDTTTLQQHLVDGRDMIIIRMPKDFPPFPQKLKFREPQREERICLVTTNFQTKSMSSMVSDTSCTFPSGDGIFWKHWIQTKDGQCGSPLVSTRDGFIVGIHSASNFTNTNNYFTSVPKNFMELLTNQEAQQWVSGWRLNADSVLWGGHKVFMVKPEEPFQPVKEATQL [H29G] | 0.0312 | 0.07 | 0.107 | 0.0659 |  |  | 
MGESLFKGPRDYNPISSSICHLTNESDGHTTSLYGIGFGPFIITNKHLFRRNNGTLVVQSLHGVFKVKDTTTLQQHLVDGRDMIIIDMPKDFPPFPQKLKFREPQREERICLVTTNFQTKSMSSMVSDTSCTFPSGDGIFWKHWIQTKDGQCGSPLVSTRDGFIVGIHSASNFTNTNNYFTSVPKNFMELLTNQEAQQWVSGWRLNADSVLWGGHKVFMVKPEEPFQPVKEATQL [R87D] |  |  |  | 0.0552 | 0.0522 | 0.0433 | 
MGESLFKGPRDYNPISSSICHLTNESDGHTTSLYGIGFGPFIITNKHLFRRNNGTLVVQSLHGVFKVKDTTTLQQHLVDGRDMIIIRMPKDFPPFPQKLKFREPQREERICLVTTNFQTKSMSSMVSDTSCTFPSGDGIFWKHWIQTKDGQCGSPLVSTRDVFIVGIHSASNFTNTNNYFTSVPKNFMELLTNQEAQQWVSGWRLNADSVLWGGHKVFMVKPEEPFQPVKEATQL [G162V] | 0.0387 |  |  |  |  | 0.0437 | 
MGESLFKGPRDYNPISSSICHLTNESDGHTTSLYGIGFGPFIITNKHLFRRNNGTLVVQSLHGVFKVKDTTTLQQHLVDGRDMIIIRMPKDFPPFPQKLKFREPQREERICLVTTNFQTKSMSSMVSDTSCTFPSGDGIFWKHWIQTKDAQCGSPLVSTRDGFIVGIHSASNFTNTNNYFTSVPKNFMELLTNQEAQQWVSGWRLNADSVLWGGHKVFMVKPEEPFQPVKEATQL [G150A] |  | 0.0825 |  |  |  | 0.0699 | 
MGESLFKGPRDYNPISSSICHLTNESDGHTTSLYGIGFGPFIITNKHLFRRNNGTLVVQSLHGVFKVKDTTTLQQHLVDGRDMIIIRMPKDFPPFPQKLKFREPQREERICLVTTNFQTKSMSSMVSDTSCTFPSGDGIFWKHWIQTKDGQCGSPLVSTRDGFIVGIHSASQFTNTNNYFTSVPKNFMELLTNQEAQQWVSGWRLNADSVLWGGHKVFMVKPEEPFQPVKEATQL [N172Q] | 0.06 |  |  |  |  |  | 
MGESLFKGPRDYNPISSSICHLTNESDGHTTSLYGIGFGPFIITNKHLFRRNNGTLVVQSLHGVFKVKDTTTLQQHLVDGRDMIIIRMPKDFPPFPQKLKFREPQREERICLVTTNFQTKSMSSMVSDTSCTFPSGDGIFWKHWIQTKDGQCGSPLVSTRDGFIVGIHSASNFTNTNNYFTSVPKTFMELLTNQEAQQWVSGWRLNADSVLWGGHKVFMVKPEEPFQPVKEATQL [N186T] |  | 0.052 |  | 0.0822 |  | 0.0399 | 0.0603
MGESLFKGPRDYNPISSSICHLTNESDGHTTSLYGIGFGPFIITNKHLFRRNNGTLVVQSLHGVFKVKDTTTLQMHLVDGRDMIIIRMPKDFPPFPQKLKFREPQREERICLVTTNFQTKSMSSMVSDTSCTFPSGDGIFWKHWIQTKDGQCGSPLVSTRDGFIVGIHSASNFTNTNNYFTSVPKNFMELLTNQEAQQWVSGWRLNADSVLWGGHKVFMVKPEEPFQPVKEATQL [Q75M] |  | 0.0579 |  | 0.0704 |  | 0.0563 | 0.0569
